Laboratory results from PMC4336329 (PLoS ONE, 2015).
Hit rate of the full screen: of about 310,000 compounds, about 2,200 (0.71%) showed an effect of 50% or more. Effects have a minus sign here. This is one part of the list.

What follows are compounds tested against human ether-à-go-go-related gene (hERG) potassium channel (human, UniProt Q12809) (assay: primary screen, population patch clamp on CHO cells stably expressing hERG).
Sequence of human ether-à-go-go-related gene (hERG) potassium channel (Q12809 whole entry, looked up): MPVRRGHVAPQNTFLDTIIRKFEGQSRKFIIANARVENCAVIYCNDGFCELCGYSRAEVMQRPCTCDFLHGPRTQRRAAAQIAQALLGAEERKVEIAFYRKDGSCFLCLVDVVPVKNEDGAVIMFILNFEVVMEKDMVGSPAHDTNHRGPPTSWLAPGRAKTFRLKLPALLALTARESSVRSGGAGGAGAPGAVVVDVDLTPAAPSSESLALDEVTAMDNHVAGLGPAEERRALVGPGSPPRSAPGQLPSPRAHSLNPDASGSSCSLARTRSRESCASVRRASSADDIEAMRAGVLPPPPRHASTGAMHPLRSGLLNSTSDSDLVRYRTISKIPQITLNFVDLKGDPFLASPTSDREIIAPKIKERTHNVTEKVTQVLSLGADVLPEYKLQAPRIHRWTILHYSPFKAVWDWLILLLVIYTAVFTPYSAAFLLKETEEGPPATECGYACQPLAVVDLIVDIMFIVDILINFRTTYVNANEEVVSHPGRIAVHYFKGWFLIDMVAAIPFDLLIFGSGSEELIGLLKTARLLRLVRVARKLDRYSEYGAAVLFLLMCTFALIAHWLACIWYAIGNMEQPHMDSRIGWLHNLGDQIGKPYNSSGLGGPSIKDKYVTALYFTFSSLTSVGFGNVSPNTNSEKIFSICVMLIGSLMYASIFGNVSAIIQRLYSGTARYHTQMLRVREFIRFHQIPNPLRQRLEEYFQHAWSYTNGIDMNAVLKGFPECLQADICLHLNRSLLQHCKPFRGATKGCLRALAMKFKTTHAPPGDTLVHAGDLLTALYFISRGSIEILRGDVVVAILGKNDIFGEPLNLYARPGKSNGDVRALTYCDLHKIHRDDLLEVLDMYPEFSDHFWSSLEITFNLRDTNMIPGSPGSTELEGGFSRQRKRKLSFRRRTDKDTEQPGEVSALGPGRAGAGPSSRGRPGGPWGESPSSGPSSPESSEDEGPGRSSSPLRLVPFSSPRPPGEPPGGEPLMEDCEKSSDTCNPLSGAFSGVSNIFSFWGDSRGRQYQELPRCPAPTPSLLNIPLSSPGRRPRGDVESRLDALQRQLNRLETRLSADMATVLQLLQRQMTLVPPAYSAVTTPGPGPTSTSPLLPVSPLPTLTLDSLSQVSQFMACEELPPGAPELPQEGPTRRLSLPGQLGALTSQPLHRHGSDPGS

| SMILES | hERG current change (%, negative = inhibition) at 1uM |
| --- | --- |
| COc1cc(C2C3CN(C)CC=C3C(C#N)=C(N)C2(C#N)C#N)ccc1OC(C)C (stereo not drawn) | 5.13% |
| CC(C)(C)c1nc(NCCO)c2nnn(Cc3ccccc3)c2n1 | 4.82% |
| Cc1ccc(C)c(S(=O)(=O)Nc2nc(C)c(C(=O)Nc3ccccc3)s2)c1 | 8.01% |
| O=C(O)c1cccc(-n2cccc2/C=C/[N+](=O)[O-])c1 | 9.75% |
| CCn1nc(C(=O)Nc2ccc(S(=O)(=O)Nc3nccs3)cc2)c2ccccc2c1=O | 8.22% |
| COc1ccc(/C=N/N2CCOCC2)cc1COc1ccc(F)cc1 | 2.44% |
| CN(C(=O)COC(=O)Cn1c(C(F)(F)F)nc2ccccc21)c1c(N)n(Cc2ccccc2)c(=O)[nH]c1=O | 9.05% |
| O=c1c2ccccc2ncn1Cc1ccc(Cl)cc1 | -8.09% |
| CCC1C(=O)N=C(SCC(=O)NC2CCCCC2)NC1=O (stereo not drawn) | 16.8% |
| CCN(CC)CCNC(=O)C1(O)c2cc(Br)ccc2NC(=O)N1c1ccccc1 (stereo not drawn) | 7.76% |
| CCC1(c2ccc(C)cc2)NC(=O)N(CC(=O)Nc2cccc(S(=O)(=O)N3CCCC3)c2)C1=O (stereo not drawn) | 9.79% |
| Cc1cc(NC(=O)CSc2nc3cc4c(cc3c(=O)n2CCc2ccccc2)OCO4)no1 | 5.94% |
| CCN(CC)S(=O)(=O)c1cc([N+](=O)[O-])ccc1NNC(=O)Nc1ccc(F)cc1 | 8.81% |
| CC1(C)CC(=O)c2cn3nc(C(F)(F)F)nc3nc2C1 | 9.97% |
| Cc1ccc(N=Nc2ccc(N)cc2C)c(S(N)(=O)=O)c1 | 13.3% |
| NC(=O)COC(=O)c1ccc2c(c1)S(=O)(=O)c1ccccc1C2=O | 4.96% |
| CC(C)c1cc(=O)n2[nH]c(SCc3ccccc3Cl)nc2n1 | 20.2% |
| COCCNC(=O)CCC1CCN(C/C=C/c2ccccc2OC)CC1 | 4.61% |
| Cc1ccc(CNC(=O)CCc2nnc3ccc(N4CCC5(CC4)OCCO5)nn23)cc1 | 19.5% |
| O=C(Nc1ccc2oc(-c3cccnc3)nc2c1)c1ccc(Br)o1 | 7.57% |
| CSc1ccccc1NC(=O)COc1nsnc1N1CCOCC1 | 14.1% |
| CCN(CC)S(=O)(=O)c1ccc(N2CCCC2)c(C(=O)OCC(=O)N2CCCC2)c1 | 3.11% |

| SMILES | hERG current change (%, negative = inhibition) at 1uM |
| --- | --- |
| Cc1onc(-c2ccccc2Cl)c1C(=O)Nc1ccccc1O | 8.58% |
| CCn1cnc2c([N+](=O)[O-])c(NS(=O)(=O)c3ccc(C)cc3)ccc21 | 7.56% |
| Cl.O=C(NCc1ccccc1)N1CCNCC1 | 11.1% |
| O=S(=O)(NCc1cc(-c2ccccc2Cl)no1)c1ccccc1 | 9.21% |
| Cc1ccc(SCC(=O)OCC(=O)N(C)CC(=O)Nc2ccccc2Cl)cc1 | 9.66% |
| O=C1N(CC(=O)N2CCc3ccccc32)CCN1Cc1ccccc1Cl | 8.38% |
| Cc1ccc(S(=O)(=O)Cc2ccc(C(=O)N3CCc4ccccc4C3)o2)cc1 | -30.2% |
| COCCN(C(=S)Nc1ccc(OC)cc1)C1CCN(C(C)C)CC1 | 6.3% |
| O=S(=O)(NC1CCCCC1)c1cccs1 | 9.05% |
| O=C(NCC1CCCO1)c1cccnc1Nc1ccccc1F (stereo not drawn) | 5.82% |
| Cc1ccc(S(=O)(=O)N2CCC(NC(=O)OC(C)C)CC2)cc1 | 16.6% |
| O=C1c2cccc3cccc(c23)C(=O)N1c1ccncc1 | -2.52% |
| CCN1C(=O)C(CC(=O)Nc2ccc(OC)cc2)N(CCc2ccc(F)cc2)C1=S (stereo not drawn) | 7.48% |
| CCC(CC)c1nc(C#N)c(NCc2ccccc2)o1 | 15.6% |
| CCOC(=O)/C(N=Nc1c(C)n(C)n(-c2ccccc2)c1=O)=C(/O)c1ccccc1 | 11% |
| O=C(COC(=O)C12CC3CC(CC(C3)C1)C2)Nc1ccc([N+](=O)[O-])cc1Br | 13.2% |
| CCOC(=O)CNC(c1ccccc1)c1cc(Br)ccc1NC(=O)CCN1CCOCC1 (stereo not drawn) | -11% |
| Cc1ccc(CNC(=O)c2ccc(N3CCC4(CC3)CC(c3ccccc3)=NO4)c(NC(=O)c3c(Cl)cccc3Cl)c2)cc1 | 20.8% |
| CNS(=O)(=O)c1cccc(C(=O)NCC(c2cccs2)N2CCOCC2)c1 (stereo not drawn) | 5.39% |
| Fc1ccc(/C=N/NC(=S)Nc2ccc(Cl)cc2)cc1F | 19.2% |
| Cc1cc(OCC(=O)Nc2cccc(S(=O)(=O)NC3=NCCCCC3)c2)ccc1Cl | 6.32% |
| O=S(=O)(NCCNS(=O)(=O)c1cccs1)c1cccs1 | 0.511% |

| SMILES | hERG current change (%, negative = inhibition) at 1uM |
| --- | --- |
| COc1ccc(NC(=S)NNC(=O)OC(C)(C)C)cc1OC | 11.6% |
| CN(C1CCCCC1)S(=O)(=O)c1ccc2c(c1)c(=O)c(C(=O)NCCN1CCCC1)cn2C | -3.61% |
| O=C(CN1CCC(n2nnc3cc(C(F)(F)F)ccc32)CC1)N1CCc2ccccc21 | -12.7% |
| CCOc1ncccc1C(=O)OCC(=O)Nc1cccc(S(N)(=O)=O)c1 | 12.6% |
| O=C(NC(=S)Nc1cccnc1)c1cc2ccccc2o1 | 12.5% |
| CC(Cc1ccccc1)[n+]1cc(/N=C(\N)[O-])on1 (stereo not drawn) | 12.5% |
| COc1cccc(NC(=S)NN2CCN(C)CC2)c1 | 10.3% |
| COc1cc(NC(=O)c2ccccc2)c(OC)cc1NC(=O)Cc1ccc(Br)cc1 | 11.7% |
| COc1ccc(CN2CCN(Cc3cc(=O)oc4cc(C)ccc34)CC2)c(OC)c1OC | -87.6% |
| COc1cccc2cc(C(=O)NC3CC4CCC3C4)oc12 (stereo not drawn) | 9.59% |
| S=C(Nc1ccccc1)N1CCC(C2CCN(C(=S)Nc3ccccc3)CC2)CC1 | 13.5% |
| COc1ccc(NC(=O)c2cc(OC)c(OC)c(OC)c2)cn1 | 4.22% |
| Cc1c(C(=O)O)sc2nc3n(c(=O)c12)CCC3 | 13.1% |
| CCOC(=O)Cn1c(=O)oc2cc(S(=O)(=O)N3CCN(C(=O)c4ccco4)CC3)ccc21 | -2.6% |
| CC(=O)c1ccc(OCC(O)Cn2nnc3ccccc32)cc1 (stereo not drawn) | 9.77% |
| Cc1cc(OCC(=O)N2CCOCC2)c(C(C)C)cc1Cl | 1.82% |
| O=c1c2cccnc2[nH]c(=S)n1CCC1=CCCCC1 | 2.72% |
| COc1cccc2sc(Nc3nc4ccc(NC(C)=O)cc4s3)nc12 | 22.8% |
| Cc1cc(N2CCOCC2)nc(-c2ccc(Br)cc2)n1 | 13.9% |
| COc1cccc(/C=C2\CCc3ccccc3C2=O)c1 | 19.5% |
| CCO/C=C1/C(=O)N(C)C(=O)c2cc(OC)ccc21 | 16.6% |
| CC(C)n1cc(/C=N/NC(=O)COc2cccc3cccnc23)c2ccccc21 | 15.7% |

| SMILES | hERG current change (%, negative = inhibition) at 1uM |
| --- | --- |
| CC1=CC(C)(C)N(C(=O)c2ccc(F)cc2)c2cc3c(cc21)OCO3 | 3.64% |
| O=C(Nc1cccnc1)C1(F)C(F)(F)C(F)(F)C(F)(F)C(F)(F)C1(F)F | 7.88% |
| CCOC(=O)c1sc(NC(=O)CCSC)nc1C | 7.09% |
| O=C(NC1CCCC1)C(c1cc2c(cc1[N+](=O)[O-])OCO2)N1CCCC1 (stereo not drawn) | 0.223% |
| COc1ccc(Cl)cc1NC(=O)CN1CCCC1.Cl | 7.56% |
| Cc1ccc(S(=O)(=O)c2ccc(Cl)cc2)cc1S(=O)(=O)N1CCOCC1 | 3.5% |
| C=CCn1c(SCc2nc3sc(C(=O)O)c(C)c3c(=O)[nH]2)nnc1-c1ccc(C(C)(C)C)cc1 | 1.36% |
| CCOC(=O)c1cnc(SCC(=O)c2ccc3c(c2)OCCO3)nc1N | 2.65% |
| CN(C)C(=O)c1cc(C(=O)c2ccc(C(F)(F)F)cc2)c[nH]1 | 12.3% |
| COc1cccc(-c2nn(C)c3sc(C(=O)NCc4ccc(C)o4)cc23)c1 | 6.13% |
| Cc1[nH][nH]c(=O)c1N=Nc1ccc(Br)c(Cl)c1 | 14.4% |
| COc1cc(C(=O)NCc2ccc(C)cc2)ccc1OCc1c(C)noc1C | -3.69% |
| Cc1ccn2c(C(=O)N/N=C\c3ccccc3[N+](=O)[O-])c(C)nc2c1 | -2.47% |
| COc1ccc(NC(=O)C(c2ccccc2)c2ccccc2)c(OC)c1 | 13.8% |
| Cc1cc(OC(C)C(=O)NCC(O)c2ccccc2)c2c3c(c(=O)oc2c1)CCCC3 (stereo not drawn) | 11.6% |
| CN(C(=O)c1ccc(Cl)cc1)C1=CCCCC1CCC#N (stereo not drawn) | 0.644% |
| COc1cccc(-c2cc(C(=O)Nc3cccnc3)no2)c1 | 8.94% |
| O=C(O)CNC(=O)c1ccc(NC(=O)/C(=C/c2ccccc2)NC(=O)c2ccco2)cc1 | 1.44% |
| O=C(Nc1nnc(-c2ccco2)o1)c1cccc(N2C(=O)CCC2=O)c1 | -1.01% |
| Cc1ccc2[nH]c(=O)c(CN(c3cccc(C)c3C)S(=O)(=O)c3ccccc3)cc2c1 | 10.2% |
| COc1cc(C(=O)NCc2cn3ccsc3n2)cc(OC)c1OC | 19.9% |
